Assay results published in the RNAGym collection of RNA variant scans (doi:10.1073/pnas.2313332121).
Variants at the background level are over-represented here.

B1: TPR 5TU (parent)
chain: GGAUCUUCUCGAUCUAACAAAAAAGACAAAUCUGCCACAAAGCUUGAGAGCAUCUUCGGAUGCAGAGGCGGCAGCCUUCGGUGGCGCGAUAGCGCCAACGUUCUCAACUAUGACACGCAAAACGCGUGCUCCGUUGAAUGGAGUUUAUCAUG

Variants of: B1
Assay: polymerase ribozyme fitness, log enrichment relative to wild type (log ratio); higher = more active; in vitro selection for triplet polymerase activity
Outline: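 Frozen incubation at −7 °C formed the core of a single, triplicate in vitro selection round applied to PCR-built, transcribed mutant libraries of each subunit of a heterodimeric triplet polymerase ribozyme. Extended constructs were gel-excised, captured with streptavidin beads and amplified by RT-PCR, and input and output libraries were Illumina-sequenced with a filter of ≥10 input reads and ≥1 read per output. Fitness is the logarithm of genotype enrichment relative to wild-type enrichment, with inverse-variance-weighted replicate averaging, and the logarithm is base 2.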

Row | Variant | polymerase ribozyme fitness (log ratio)
1 | GGAUCUUCUCGAUCUAACAAAAAAGACAUAUCUGCCACAAAGCUUGAGAGCAUCUUCGGAUGCAGAGGCGGCAGCCUUCGGUGGCGCGAUUGCGCCAACGUUCUCAACUAUGACACGCAAAAGGCGUGCUCCGUUGAAUGGAGUUUAUCAUG [A29U A91U C123G] | ≤ -4.2
2 | GGAUCUUCUCGAUCUAACAAAAAAGACAUAUCUGCCACAAAGCUUGAGAGCAUCUUCGGAUGUAGAGGCGGCAGCCUUCGGUGGCGCGAUAGCGCCAACGUUCUCAACUAUGAUACGCAAAACGCGUGCUCCGUUGAAUGGAGUUUAUCAUG [A29U C63U C114U] | ≤ -4.2
3 | GGAUCUUCUCGAUCUAACAAAAAAGACAUAUCUACCACACAGCUUGAGAGCAUCUUCGGAUGCAGAGCCGGCAGCCUUCGGUGGCGCGAUAGCGCAAACGUUCUCAACUAUGACACGCAAAACGCGUGCUCCGUUGAAUGGAGUUUAUCAUG [A29U G34A A40C G68C C96A] | ≤ -4.2
4 | GGAUCUUCUCGAUCUAACAAAAAAGACAUAUCUGCGACAAAGCUUAAGAGCAUCUUCGGAUGCAGCGACGGCAGCCUUCGGUGGCGAGAUAGCGCCAACGUUCUCAACUAUGACACGCAAAACGCGUGCUCCGUUGAAUGGAGUUUAUCAUG [A29U C36G G46A A66C G68A C87A] | ≤ -4.2
5 | GGAUCUUCUCGAUCUAACAAAAAAGACAUAUCUGCCACAAAGCUUGAGAGCUUCUUCGGAAGUAGAGGUGGCAGACUUCGGUGGCGCGAUAGCGCCUACGUUCUCAACUAUGACACGCAAAACGCGUGCUCCGUUGAAUGGAGUUUAUCAUG [A29U A52U U61A C63U C69U C75A A97U] | ≤ -4.2
6 | GGAUCUUCUCGAUCUAACAAAAAAGACAUAUCUGCCACAAAGCUUGAGAGCAUCUUCGGAUGCAGAGGCGGCAGCCUUCGGUGGCGGGAUAGCGCCAACGUUCAUAACUAUGACACUCAAAACGCGUGCUCCGUUGAAUGGAGUUUAUCAUG [A29U C87G U104A C105U G117U] | ≤ -4.2
7 | GGAUCUUCUCGAUCUAACAAAAAAGACAUAUCUGCCACAAAGCUUGAGAGCUACUUCGGAUGCAGAGGCGGCAGCCUUCAGUGGCGAGAUAGCGCCAACGUUCUCAACUAUGACACGCAAAACGCGUUCUCCGUUGAAUGGAGUUCAUCAUG [A29U A52U U53A G80A C87A G128U U146C] | ≤ -4.2
8 | GGAUCUUCUCGAUCUAACAAAAAAGACAUAUCUGCCACAAAGCUUAAGAACAUCUUCGGAUGCAGAGGCGGCGGCCUUCGUUGGCGCGAUAGCGGCAACGUUCUCAACUAUGACACGCAAAACGCGUGCUCCGUUGAAUGGAGUUUAUCAUG [A29U G46A G50A A73G G81U C95G] | ≤ -4.2
9 | GGAUCUUCUCGAUCUAACAAAAAAGACAUAUUUGCCACAAAGCUUGAGAGCAUCUUCGGAUACAGAUGCGGCAGGCUUCGGGGGCGCGAUAGCGCCAACGUUCUCAACUAUGACACGCAAAACGCGUGCUCCGUUGAAUGGUGUUUAUCGUG [A29U C32U G62A G67U C75G U82G A142U A150G] | -3.64
10 | GGAUCUUCUCGAUCUAACAAAAAAGACAUAUCUGCCACAAAGCUUGAUAGCAUCUUCGGAUGCAGAGGCGGCAGCCUUCGGUGGCGCGAUAGCGUCAACGUUCUCAACUAUGUCACGCAAAGCGCGUGCUCCGUUGCAUGGAGUUUAUCAUG [A29U G48U C95U A113U A122G A137C] | ≤ -4.2
11 | GGAUCUUCUCGAUCUAACAAAAAAGACAUAUCUGCUACAAAGCUUGAGAGCAUCUUCGGAUGCAGAGGCGGCAGCCUUCGGUGGCGCGAUAGCGCCAACGUUCUCAACUAUGACACGCAAAACGCGUGCUCCGUUGAAUGGAGUUUAUCAUG [A29U C36U] | ≤ -4.2
12 | GGAUCUUCUCGAUCUAACAAAAAAGACAUAUCUGCUACAAAGCUUGAGAGCAUCUUCGGAUGCAGAGGCGGCAACCUUCGGUGGCGCGAUAGCGCCAACGUUCUCAACUAUGACACGCCAAACGCGUGCUCCGUUGAAUGGAGUUUAUCAUG [A29U C36U G74A A119C] | ≤ -4.2
13 | GGAUCUUCUCGAUCUAACAAAAAAGACAUAUCUGCCACAAAGCUUGAGAGCAUCUUCGGAUGCAGAGGCGGCAGCCUUUGGUUGCGCGAUAGCGCCAACGUUCUCAACUAAGACACGCAAAACGCGUGCUCCGUUGAAUGGAGUUUAUCAUG [A29U C79U G83U U111A] | ≤ -4.2
14 | GGAUCUUCUCGAUCUAACAAAAAAGACAUAUCUGCCACAAAGGUUGAGAGCAUCUUCGGAUGCAGAGGCGGCAGCCUUCGGUGGCGCGAUAGGGCCAACGUUCUCAACUAUGACACGCAAAACGCGUGCUCCGUUGAAUGGAGUUUAUCAUG [A29U C43G C93G] | ≤ -4.2
15 | GGAUCUUCUCGAUCUAACAAAAAAGACAUAUCUGCCACAAAGCUUGAGAACAUCUUCGGAUGCAGAGGCGGCAGCCUUCGGUGGCGCGAUAGCGCCAACGUUCUCAACUAUGACAUGCAAAACGCGUGGUCCGUUGAAUGGAGUUUAUCAUG [A29U G50A C116U C129G] | ≤ -4.2
16 | GGAUCUUCUCGAUCUAACAAAAAAGACAUAUCUGCCACAAAGCUUGAGAGCAUCUUCGGAUGCAGAGGCGGUAGCGUUCGGUGGCUCGAUAGCGCCAAAGUUCUCAACUAUGACACGCAAAACGCGUGCUCCGUUGAAUGGAGUUUAUCAUG [A29U C72U C76G G86U C99A] | ≤ -4.2
17 | GGAUCUUCUCGAUCUAACAAAAAAGACAUAUCUGCCAUAAAGCAUGAGAGCAUCAUUGGAUGCAGAGGCGGCAGCCUUCGGUGGCGGGAUAGCGGCAACGUUCUCAACUAUGACACGCAAAACGCGUGCUCCGUUGAAUGGAGUUUAUCAUG [A29U C38U U44A U55A C57U C87G C95G] | ≤ -4.2
18 | GGAUCUUCUCGAUCUAACAAAAAAGACAUAUCUGCCAUAAAGCUUGAGAGCAUCUUCGGAUGCAGAGGCGGCAGCCUUCGGUGGCUCGAUAGCGCCAACGUUCUCAACUAUGACACGCAAAACGCGUGCUCCGUUAAAGGGAGUUUAUCAUG [A29U C38U G86U G136A U139G] | ≤ -4.2
19 | GGAUCUUCUCGAUCUAACAAAAAAGACAUAUCUGCCACAAAGCUUGAGAGAAUCUUCGGAUGCAGAGGCGGCAGCCUUCGGUGGCGCGAUAGCACCAACGUUCUCAACUAUGACACGCAAAACGCGUGCUCCGUUGAAUGGAGUUUAUCAUG [A29U C51A G94A] | ≤ -4.2
